Reference: ChEMBL document CHEMBL4888484, “Replenishing the malaria drug discovery pipeline: Screening and hit evaluation of the MMV Hit Generation Library 1 (HGL1) against asexual blood stage Plasmodium falciparum ,using a nano luciferase reporter read-out” (2022)
Where “and” joins values, the source holds several entries; their conditions need not be identical. Identical values can stand only once. Screen size: about 150,000 compounds; about 540 (0.36%) showed an effect of 50% or more. Some of the results follow.

Tested on: Plasmodium falciparum
Experiment: Primary screen in NF54 nanoGlo assay, in single point, at 2uM, 72h; a lower Z score goes with more inhibition
Type: functional, Erythrocyte
Details: timepoint 72 hour

| Structure (SMILES) | % Inhibition [%] | Z score | % Inhibition (2 µM) |
| --- | --- | --- | --- |
| CNc1ccnc(NCC[C@@H]2CCCN3CCCC[C@H]23)n1 | 4 | -0.7 |  |
| Cc1cnc(N2C[C@H]3CN(C)C[C@H]3C2)c(Br)c1 | -1 | 0.19 |  |
| Cc1c(C(=O)Nc2cccc3c2CCCC3)nnn1C1CCNCC1 | 1 | -0.13 |  |
| Cn1c(-c2ccccc2)c(-c2c(O)n(C)c(=O)n(C)c2=O)[nH]c1=O | -16 | 2 |  |
| CN(C)[C@H]1CCC[C@@H]1NC(=O)c1cc(F)cc(Cl)c1 | -12 | 2.3 |  |
| O=C(c1ccc(F)cc1F)N1CCN2CCC1C2 (configuration not stated) | -4 | 0.51 |  |
| Fc1c(Cl)cccc1CN1CC[C@@]2(CCCNC2)C1 | -9 | 0.99 |  |
| Cc1ccccc1S(=O)(=O)Cc1ccc(C(=O)N2CCC3(CC2)OCCO3)o1 | 4 | -0.52 |  |
| O=C1NC(c2ccsc2)N2CCCCC12 (configuration not stated) | -7 | 0.88 |  |
| CCN(C(C)=O)c1ccc([C@@](O)(C(=O)OC)C(F)(F)F)cc1 | -19 | 2.5 |  |
| O=C(NC1(Cc2cccc(F)c2)CCC1)c1ccc(S(=O)(=O)F)cc1 | 3 | -0.51 |  |
| CNc1nnc(CC(=O)N2CCN(C)C[C@@H]2CC(C)C)s1 | 2 | -0.21 |  |
| Cn1cc2ncn(Cc3cn4ccccc4n3)c(=O)c2n1 | 7 | -1.4 |  |
| CC(NC1C[C@H]2CC[C@@H](C1)N2Cc1ccccc1)c1ccccn1 (some centres not stated) | 2 | -0.2 |  |
| O=C(O)[C@@]12COc3ccccc3[C@@H]1CN(Cc1ccc(OCCO)cc1)C2 | -5 | 0.5 |  |
| O=C(NCc1ccncc1)C12CC(CN1Cc1ccccc1)C2 | -4 | 0.72 |  |
| O=C(NCC1(C(F)(F)F)CC1)c1cccc2oc(=O)[nH]c12 | -8 | 1.48 |  |
| Cc1nnc(N2CCN(CCc3cccs3)CC2)c(C#N)c1C | 5 | -0.57 |  |
| Cc1ocnc1C(=O)NCc1ccc(N2CCNCC2)c(F)c1 | -2 | 0.27 |  |
| Cc1nc([C@H]2CCOC2)cc(N(C)C2CCN(C)CC2)n1 | -5 | 0.55 |  |
| c1ccc2c(CNCCc3c[nH]c4ccccc34)cccc2c1 |  |  | 1% and -16% |
| CCOc1ccccc1NC(=O)CN1CC=C(c2cnn(C)c2)CC1 | -1 | 0.1 |  |
| Cc1c(C)[n+]([O-])c([C@H](c2ccco2)C2C(=O)N(C)C(=O)N(C)C2=O)n1Cc1ccccc1 | -11 | 1.99 |  |
| CN(C)c1cc(N(C)Cc2cnc(N)nc2)ncn1 | -13 | 1.44 |  |
| O=C(CCc1nc(C2=CCN(Cc3ccc(Cl)cc3)CC2)no1)NCc1ccc(F)cc1 | -11 | 1.27 |  |
| CCCn1c(=O)oc2cc(S(=O)(=O)N3CCC(CC(=O)Nc4cccc(C)c4C)CC3)ccc21 | -24 | 2.23 |  |
| O=C1CCC[C@@H]1CCn1c(-c2cccc(Br)c2)noc1=O | 9 | -1.32 |  |

| Structure (SMILES) | % Inhibition [%] | Z score | % Inhibition (2 µM) |
| --- | --- | --- | --- |
| Cc1cc(=O)c(OCC(=O)N2CCN([C@@H](c3ccccc3)c3ccc(Cl)cc3)CC2)c[nH]1 | 33 | -9.31 |  |
| COc1ccc(CCN2C(=O)NC(=O)C3(Cc4c(Cl)cccc4N4CCN(C)CC43)C2=O)cc1OC (configuration not stated) | 1 | -0.2 |  |
| OCc1cc2n(n1)CCN(CCc1c[nH]c3ccccc13)C2 | 3 | -0.52 |  |
| COc1ccc2c(c1)[C@@]1(CCN(S(=O)(=O)c3cccc(Cl)c3)C1)C(=O)N2C | -15 | 1.96 |  |
| CN(c1nccs1)S(=O)(=O)c1c(Br)cc2[nH]c(=O)oc2c1Cl | -3 | 0.32 |  |
| Cc1ccc(C)c(OCC#CCN2CCNCC2)c1 | -12 | 1.35 |  |
| O=C1CCN(C(=O)c2nccnc2-c2nc3ccccc3s2)CC1 | 2 | -0.32 |  |
| Cc1cc(C)n(C[C@H](C)NCc2ccc(CO)cc2)n1 | -9 | 0.91 |  |
| CCCn1c(=O)oc2cc(NS(=O)(=O)c3ccc(C(C)C)cc3)ccc21 | -14 | 1.38 |  |
| CCNC(=O)NC[C@H]1C[C@@H]2CCN1C[C@@H]2c1cc(-c2ccco2)nc(C)n1 | -6 | 0.75 |  |
| CC(C)(C)n1nnnc1CN1CCC[C@H](C(=O)c2ccc(F)cc2)C1 | 3 | -0.26 |  |
| CN(C)C1(C)CCC(Nc2cccc(F)c2C(N)=O)CC1 (configuration not stated) | -3 | 0.38 |  |
| COc1ccc(CCN2C(=O)NC(=O)C3(Cc4cccc(F)c4N4CCCC43)C2=O)cc1 (configuration not stated) | 7 | -0.82 |  |
| Cc1ccc([C@@H]2CN(C(=O)c3ccncc3)[C@@H]3C4CCN(CC4)[C@@H]32)cc1 | 2 | -0.28 |  |
| CCOc1ccc(-c2nc(-c3ccc4c(c3)oc(=O)n4C(C)C)no2)cc1OCC | 11 | -1.07 |  |
| CC1(C)CC(NC2CCN(CC(F)(F)F)C2)C(C)(C)O1 (configuration not stated) | -5 | 0.69 |  |
| CCc1nccn1C[C@H](C)NCc1csc(C)n1 | -2 | 0.39 |  |
| CCCN1CCC(N[C@@H](C)CCCC(C)C)CC1 | -8 | 1.02 |  |
| Cc1cccc2c(N3CCOC4CCN(C)CC43)ncnc12 (configuration not stated) | -4 | 0.54 |  |
| CN(CC(=O)NCCc1ccc(Cl)cc1)S(=O)(=O)c1ccc2[nH]c(=O)oc2c1 | -8 | 0.84 |  |
| O=C(NCC#CCN1CCOCC1)c1ccco1 | -12 | 1.8 |  |
| Cn1cnnc1CS(=O)(=O)c1ccc(C#N)c(C(F)(F)F)c1 | -3 | 0.45 |  |
| O=C(c1cnc(-c2ccc3c(c2)OCO3)nc1Nc1cccc(F)c1)N1CCC2(CC1)OCCO2 | 5 | -0.51 |  |
| CC1(C)CC2CC(C)(CN2Cc2csnn2)C1 (configuration not stated) | -1 | 0.21 |  |
| CC(C)N1C2CCC1CN(c1ccc(C#N)cn1)CC2 (configuration not stated) | -9 | 0.89 |  |
| CCCCc1nc(CN[C@@H](C)Cn2cc(C)cn2)no1 | -3 | 0.29 |  |
| COc1ccc(N2C(=O)[C@@H]3C[C@H]2CN3Cc2ccccn2)cc1Cl | 6 | -0.82 |  |
